Test results: PubChem BioAssay (NCI)
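Compound exposure: 48 hours, 5 concentrations, 96-well plates. The concentration for 50% growth inhibition is given as GI50. The concentration for full growth arrest is given as TGI.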

Tested on: NCI-H322M lung
Test: NCI tumour cell line growth inhibition, 48 h

Row | SMILES | GI50 [µM] | TGI [µM]
1 | Cc1cccc(/C=C/C(=O)Nc2ncc(Cc3cccc(C)c3)s2)c1 | 1.17 | > 100
2 | Oc1cccc2ccc(-c3nnc(SCc4ccc(O)c5ncccc45)n3-c3ccccc3)nc12 | 0.552 | > 31.9
3 | CCCc1cc2cc(-n3nc(CC)c4c3CC(C)(C)CC4=O)cc(NC3CCC(O)CC3)c2c(=O)[nH]1 (configuration not stated) | 2.48 | > 100
4 | COc1cc(OC)c(/C=C/S(=O)(=O)Cc2ccc(OC)c(NC(=O)CCC(=O)NO)c2)c(OC)c1 | 0.0649 | > 100
5 | CCC(=C(c1ccc(OCCN(C)C)cc1)c1ccc(OCCN(C)C)cc1)c1ccc(Cl)cc1 | 3.17 | 6.38
6 | O=C(NCCCNc1cc(-c2cn(-c3ccccc3)nc2-c2cccc(O)c2)ccn1)Nc1ccc(F)cc1 | 3.7 | 12.4
